The values that follow come from the antibiotic and cytotoxicity screens of Wong et al. (2023).

The test system of one assay is HSkMC. In words: cytotoxicity call (relative viability < 0.9). Conditions: 10 µM.
The test system of the next assay is HepG2. In words: cytotoxicity call (relative viability < 0.9). As to conditions: 10 µM.
The subject of the next assay is S. aureus RN4220. In words: growth inhibition call (relative growth <= 0.2). Conditions: 50 µM.

Each structure is given as a SMILES string. The list shows a part of the results.

On to `CC=NN(C)C=O`, for which the cytotoxicity call with HSkMC and in the assay with HepG2 was “inactive” each time. Moreover, the growth inhibition call with S. aureus RN4220 was “inactive”.

For the compound `COc1ccc2c3c([nH]c2c1)[C@H](CO)N(C[C@]13CN(CC2CCOCC2)C1)S(=O)(=O)c1cn(cn1)C`, the cytotoxicity call in the assay with HSkMC and in the assay on HepG2 was “inactive” throughout. For the same compound, the growth inhibition call with S. aureus RN4220 was “inactive”.

Regarding `O=C(O)c1ccc(OC[C@@H](O)CO[C@H](COc2ccc(C(=O)O)cc2)Cn2c3ccccc3c3ccccc32)cc1`, the cytotoxicity call in the assay with HSkMC and in the assay on HepG2 was “inactive” in each case. For the same compound, the growth inhibition call with S. aureus RN4220 is “inactive”.

Regarding `Cl.NCCCCC(N)C(=O)O` (centres undefined), the cytotoxicity call in the assay on HSkMC and in the assay with HepG2 was “inactive” throughout. In addition, the growth inhibition call in the assay with S. aureus RN4220 is “inactive”.

For the compound `C[C@@H]1CN([C@H](C)CO)C(=O)c2cc(NC(=O)Cn3cnnn3)ccc2O[C@H]1CN(C)Cc1ccc2c(c1)OCO2`, the cytotoxicity call in the assay with HSkMC and in the assay on HepG2 was “inactive” in each case. In addition, in the assay with S. aureus RN4220, the growth inhibition call is “inactive”.

For `COc1ccc(S(=O)(=O)N(C)C[C@H]2Oc3ccc(N(C)C)cc3C(=O)N([C@H](C)CO)C[C@H]2C)cc1`, the cytotoxicity call in the assay with HSkMC and in the assay on HepG2 was “inactive” throughout. Moreover, the growth inhibition call with S. aureus RN4220 is “inactive”.

As for `Cc1ccc(S[C@]2(C(=O)O)CC(=O)N(Cc3ccccc3C(F)(F)F)[C@@H]2c2ccc(CO)cc2)cc1`, the cytotoxicity call in the assay on HSkMC and with HepG2 was “inactive” each time. For the same compound, in the assay with S. aureus RN4220, the growth inhibition call is “inactive”.

In the case of `CCS(=O)(=O)Nc1ccc2c(c1)C(=O)N(C)[C@H]1CC[C@H](CC(=O)N3CCN(C)CC3)O[C@H]1CO2`, the cytotoxicity call in the assay with HSkMC and in the assay on HepG2 was “inactive” each time. Moreover, the growth inhibition call in the assay on S. aureus RN4220 is “inactive”.

For the compound `C[C@@H]1CCCCO[C@@H](CN(C)C(=O)Nc2ccccc2)[C@H](C)CN([C@H](C)CO)C(=O)c2cc(NS(=O)(=O)c3cccs3)ccc2O1`, the cytotoxicity call in the assay on HSkMC and in the assay with HepG2 was “inactive” in each case. The growth inhibition call with S. aureus RN4220 is “inactive”.

In the case of `CN1C(=O)c2cc(NC(=O)c3cnccn3)ccc2OC[C@@H]2O[C@@H](CC(=O)N[C@H]3CCN(Cc4ccccc4)C3)CC[C@H]21`, the cytotoxicity call in the assay with HSkMC and with HepG2 was “inactive” throughout. Further, the growth inhibition call in the assay with S. aureus RN4220 was “inactive”.

Take `O=C(O)C1(O)CC(O)C(O)C(O)C1` (centres undefined): the cytotoxicity call with HSkMC and in the assay with HepG2 was “inactive” each time. Also, in the assay with S. aureus RN4220, the growth inhibition call was “inactive”.

As to `O=C1/C(=C/c2cn(-c3ccccc3)nc2-c2ccc(OCc3ccccc3)cc2)SC(=S)N1CCS(=O)(=O)O`, the cytotoxicity call with HSkMC and with HepG2 was “inactive” each time. Also, the growth inhibition call in the assay on S. aureus RN4220 was “inactive”.

Take `NC(=O)[C@H]1[C@@H]2C(=O)O[C@@H](c3ccccc3)[C@@H](c3ccccc3)N2[C@@H](c2ccc(O)cc2)[C@]12C(=O)Nc1ccc(C#CC3(O)CCCCCC3)cc12`: the cytotoxicity call in the assay with HSkMC and in the assay on HepG2 was “inactive” in each case. The growth inhibition call in the assay on S. aureus RN4220 was “inactive”.

With `NC1CCCCC1N.O=C1[O][Pt][O]C1=O` (centres undefined), in the assay with HSkMC, the cytotoxicity call was “inactive”. Further, the cytotoxicity call in the assay on HepG2 was “active”. Besides, the growth inhibition call in the assay with S. aureus RN4220 is “inactive”.

Turning to `C[C@H](CO)N1C[C@H](C)[C@@H](CN(C)Cc2ccc(C(=O)O)cc2)Oc2ccc(NS(=O)(=O)c3cn(C)cn3)cc2C1=O`, the cytotoxicity call with HSkMC and in the assay with HepG2 was “inactive” throughout. Further, the growth inhibition call with S. aureus RN4220 is “inactive”.

On to `COc1ccccc1CN1C(=O)c2ccccc2[C@@]2(Cc3ccccc3N(C3CC3)C2=O)[C@@H]1c1ccc(CO)cc1`, for which the cytotoxicity call in the assay on HSkMC and in the assay with HepG2 was “inactive” each time. Besides, in the assay on S. aureus RN4220, the growth inhibition call is “inactive”.

Regarding `COC(CN(C)C(=O)c1cn(C)c2ccc(S(=O)(=O)N3CCOCC3)cc2c1=O)OC`, the cytotoxicity call with HSkMC and with HepG2 was “inactive” in each case. In the assay with S. aureus RN4220, the growth inhibition call was “inactive”.

Regarding `CCCC(=O)N1CC[C@]2(CC1)CN([C@H](CO)c1c2c2ccc(cc2n1C)OC)C(=O)CN1CCOCC1`, the cytotoxicity call in the assay on HSkMC and in the assay with HepG2 was “inactive” each time. The growth inhibition call in the assay with S. aureus RN4220 is “inactive”.

For the compound `C[C@H](CO)N1C[C@H](C)[C@H](CN(C)C(=O)Nc2cccc3ccccc23)Oc2ncc(-c3ccccc3)cc2C1=O`, the cytotoxicity call with HSkMC and in the assay on HepG2 was “inactive” throughout. Further, in the assay on S. aureus RN4220, the growth inhibition call was “inactive”.

Take `COCC#Cc1ccc([C@@H]2[C@H](CO)N3C(=O)CN(C(=O)c4cccnc4)C[C@@H]23)cc1`: the cytotoxicity call in the assay with HSkMC and in the assay on HepG2 was “inactive” each time. Besides, the growth inhibition call with S. aureus RN4220 is “inactive”.

As to `COc1ccc(C2=NS(=O)(=O)N(C)C(C(=O)N3CCC(C(N)=O)CC3)=C2)cc1`, the cytotoxicity call with HSkMC and in the assay on HepG2 was “inactive” each time. Further, in the assay with S. aureus RN4220, the growth inhibition call was “inactive”.

Turning to `O=c1[nH]/c(=C/c2ccco2)c(=O)[nH]/c1=C\c1ccco1`, the cytotoxicity call in the assay on HSkMC and with HepG2 was “inactive” throughout. Also, the growth inhibition call with S. aureus RN4220 is “inactive”.

With `C[C@@H]1CN([C@H](C)CO)C(=O)c2cc(NC(=O)Cc3cn(C)c4ccccc34)ccc2O[C@@H]1CN(C)Cc1ccc(Oc2ccccc2)cc1`, the cytotoxicity call in the assay on HSkMC and in the assay with HepG2 was “inactive” each time. In addition, the growth inhibition call in the assay with S. aureus RN4220 is “inactive”.

Turning to `COc1ccc(S(=O)(=O)Nc2ccc3c(c2)C(=O)N([C@H](C)CO)C[C@@H](C)[C@H](CN(C)Cc2ccc(-c4ccccc4)cc2)O3)cc1`, the cytotoxicity call in the assay with HSkMC and in the assay on HepG2 was “inactive” throughout. In addition, in the assay with S. aureus RN4220, the growth inhibition call was “inactive”.

In the case of `COc1ccc(CN(C)C[C@@H]2Oc3c(NC(=O)c4cnccn4)cccc3C(=O)N([C@H](C)CO)C[C@H]2C)cc1`, the cytotoxicity call with HSkMC and in the assay with HepG2 was “inactive” each time. The growth inhibition call in the assay on S. aureus RN4220 is “inactive”.

`C[C@@H]1CCCCO[C@H](CN(C)Cc2ccc3c(c2)OCO3)[C@H](C)CN([C@H](C)CO)C(=O)c2cc(NS(=O)(=O)c3ccc(F)cc3)ccc2O1`: the cytotoxicity call in the assay with HSkMC and with HepG2 was “inactive” throughout. Besides, the growth inhibition call with S. aureus RN4220 is “inactive”.

Consider `CN1C(=O)c2cc(NC(=O)c3ccc(F)c(F)c3)ccc2OC[C@H]2O[C@@H](CC(=O)N3CCOCC3)CC[C@H]21`, for which the cytotoxicity call in the assay on HSkMC (human skeletal muscle cells) and in the assay on HepG2 was “inactive” throughout. The growth inhibition call in the assay with S. aureus RN4220 is “inactive”.

On to `C[C@@H]1CCCCO[C@@H](CN(C)C(=O)Nc2ccc3c(c2)OCO3)[C@H](C)CN([C@@H](C)CO)C(=O)c2cc(NS(=O)(=O)c3ccc(F)cc3)ccc2O1`, for which the cytotoxicity call with HSkMC and in the assay on HepG2 was “inactive” each time. Also, in the assay with S. aureus RN4220, the growth inhibition call was “inactive”.
